From the supplement of paper PMC8728848
Some of the results follow.

What was measured:
Test in all cases: glycan array binding signal (z-score within array); higher = stronger binding
Settings in all cases: glycan notation: IUPAC condensed, linker removed
[1] = target: Neu5Ac(a2-6)Gal(b1-4)GlcNAc
Outline: (§1)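 The binding signal is a Z-score computed within each array. Data were drawn from 3228 arrays in the Consortium for Functional Glycomics database, restricted to those with a known protein sequence. Scores were averaged over arrays of the same protein sequence at different concentrations or buffers, and over linkers, and negative values can be taken as non-binding.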

[2] = target: Neu5Ac(a2-6)Gal(b1-4)GlcNAc(b1-2)Man
Outline: as §1

[3] = target: Neu5Ac(a2-6)Gal(b1-4)GlcNAc(b1-2)Man(a1-3)Man(b1-4)GlcNAc(b1-4)GlcNAc
Outline: as §1

[4] = target: Neu5Ac(a2-6)Gal(b1-4)GlcNAc(b1-2)Man(a1-3)[Gal(b1-4)GlcNAc(b1-2)Man(a1-6)]Man(b1-4)GlcNAc(b1-4)GlcNAc
Outline: as §1

[5] = target: Neu5Ac(a2-6)Gal(b1-4)GlcNAc(b1-2)Man(a1-3)[GlcNAc(b1-2)Man(a1-6)]Man(b1-4)GlcNAc(b1-4)GlcNAc
Outline: as §1

[6] = target: Neu5Ac(a2-6)Gal(b1-4)GlcNAc(b1-2)Man(a1-3)[GlcNAc(b1-2)Man(b1-4)GlcNAc(b1-2)Man(a1-6)]Man(b1-4)GlcNAc(b1-4)GlcNAc
Outline: as §1

[7] = target: Neu5Ac(a2-6)Gal(b1-4)GlcNAc(b1-2)Man(a1-3)[GlcNAc(b1-4)][Neu5Ac(a2-6)Gal(b1-4)GlcNAc(b1-2)Man(a1-6)]Man(b1-4)GlcNAc(b1-4)GlcNAc
Outline: as §1

[8] = target: Neu5Ac(a2-6)Gal(b1-4)GlcNAc(b1-2)Man(a1-3)[Man(a1-6)]Man(b1-4)GlcNAc(b1-4)GlcNAc
Outline: as §1

[9] = target: Neu5Ac(a2-6)Gal(b1-4)GlcNAc(b1-2)Man(a1-3)[Neu5Ac(a2-3)Gal(b1-4)GlcNAc(b1-2)Man(a1-6)]Man(b1-4)GlcNAc(b1-4)GlcNAc
Outline: as §1

[10] = target: Neu5Ac(a2-6)Gal(b1-4)GlcNAc(b1-2)Man(a1-3)[Neu5Ac(a2-6)Gal(b1-4)GlcNAc(b1-2)Man(a1-6)]Man(b1-4)GlcNAc(b1-4)GlcNAc
Outline: as §1

[11] = target: Neu5Ac(a2-6)Gal(b1-4)GlcNAc(b1-2)Man(a1-3)[Neu5Ac(a2-6)Gal(b1-4)GlcNAc(b1-2)Man(a1-6)]Man(b1-4)GlcNAc(b1-4)[Fuc(a1-6)]GlcNAc
Outline: as §1

[12] = target: Neu5Ac(a2-6)Gal(b1-4)GlcNAc(b1-2)Man(a1-6)Man(b1-4)GlcNAc(b1-4)GlcNAc
Outline: as §1

[13] = target: Neu5Ac(a2-6)Gal(b1-4)GlcNAc(b1-2)Man(a1-6)[Gal(b1-4)GlcNAc(b1-2)Man(a1-3)]Man(b1-4)GlcNAc(b1-4)GlcNAc
Outline: as §1

[14] = target: Neu5Ac(a2-6)Gal(b1-4)GlcNAc(b1-2)Man(a1-6)[GlcNAc(b1-2)Man(a1-3)]Man(b1-4)GlcNAc(b1-4)GlcNAc
Outline: as §1

[15] = target: Neu5Ac(a2-6)Gal(b1-4)GlcNAc(b1-2)Man(a1-6)[Man(a1-3)]Man(b1-4)GlcNAc(b1-4)GlcNAc
Outline: as §1

[16] = target: Neu5Ac(a2-6)Gal(b1-4)GlcNAc(b1-2)[Neu5Ac(a2-6)Gal(b1-4)GlcNAc(b1-4)]Man(a1-3)[GlcNAc(b1-4)][Neu5Ac(a2-6)Gal(b1-4)GlcNAc(b1-2)[Neu5Ac(a2-6)Gal(b1-4)GlcNAc(b1-6)]Man(a1-6)]Man(b1-4)GlcNAc(b1-4)GlcNAc
Outline: as §1

[17] = target: Neu5Ac(a2-6)Gal(b1-4)GlcNAc(b1-2)[Neu5Ac(a2-6)Gal(b1-4)GlcNAc(b1-4)]Man(a1-3)[GlcNAc(b1-4)][Neu5Ac(a2-6)Gal(b1-4)GlcNAc(b1-4)Man(a1-6)]Man(b1-4)GlcNAc(b1-4)GlcNAc
Outline: as §1

[18] = target: Neu5Ac(a2-6)Gal(b1-4)GlcNAc(b1-2)[Neu5Ac(a2-6)Gal(b1-4)GlcNAc(b1-6)]Man(a1-6)[Neu5Ac(a2-6)Gal(b1-4)GlcNAc(b1-2)Man(a1-3)][GlcNAc(b1-4)]Man(b1-4)GlcNAc(b1-4)GlcNAc
Outline: as §1

[19] = target: Neu5Ac(a2-6)Gal(b1-4)GlcNAc(b1-3)Gal(b1-3)GlcNAc
Outline: as §1

[20] = target: Neu5Ac(a2-6)Gal(b1-4)GlcNAc(b1-3)Gal(b1-4)GlcNAc
Outline: as §1

[21] = target: Neu5Ac(a2-6)Gal(b1-4)GlcNAc(b1-3)Gal(b1-4)GlcNAc(b1-2)Man(a1-3)[Neu5Ac(a2-6)Gal(b1-4)GlcNAc(b1-3)Gal(b1-4)GlcNAc(b1-2)Man(a1-6)]GalNAc
Outline: as §1

[22] = target: Neu5Ac(a2-6)Gal(b1-4)GlcNAc(b1-3)Gal(b1-4)GlcNAc(b1-3)Gal(b1-4)GlcNAc
Outline: as §1

[23] = target: Neu5Ac(a2-6)Gal(b1-4)GlcNAc(b1-3)Gal(b1-4)GlcNAc(b1-3)Gal(b1-4)GlcNAc(b1-2)Man(a1-3)[Neu5Ac(a2-6)Gal(b1-4)GlcNAc(b1-3)Gal(b1-4)GlcNAc(b1-3)Gal(b1-4)GlcNAc(b1-2)Man(a1-6)]GalNAc
Outline: as §1

[24] = target: Neu5Ac(a2-6)Gal(b1-4)GlcNAc(b1-3)Gal(b1-4)GlcNAc(b1-3)GalNAc
Outline: as §1

[25] = target: Neu5Ac(a2-6)Gal(b1-4)GlcNAc(b1-3)Gal(b1-4)GlcNAc(b1-3)[Neu5Ac(a2-6)Gal(b1-4)GlcNAc(b1-3)Gal(b1-4)GlcNAc(b1-6)]GalNAc
Outline: as §1

[26] = target: Neu5Ac(a2-6)Gal(b1-4)GlcNAc(b1-3)Gal(b1-4)GlcNAc(b1-6)[Gal(b1-3)]GalNAc
Outline: as §1

[27] = target: Neu5Ac(a2-6)Gal(b1-4)GlcNAc(b1-3)Gal(b1-4)[Fuc(a1-3)]GlcNAc(b1-3)Gal(b1-4)[Fuc(a1-3)]GlcNAc
Outline: as §1

[28] = target: Neu5Ac(a2-6)Gal(b1-4)GlcNAc(b1-3)GalNAc
Outline: as §1

[29] = target: Neu5Ac(a2-6)Gal(b1-4)GlcNAc(b1-3)[Neu5Ac(a2-6)Gal(b1-4)GlcNAc(b1-6)]GalNAc
Outline: as §1

[30] = target: Neu5Ac(a2-6)Gal(b1-4)GlcNAc(b1-6)GalNAc
Outline: as §1

[31] = target: Neu5Ac(a2-6)Gal(b1-4)GlcNAc(b1-6)[Gal(b1-3)GlcNAc(b1-3)]Gal(b1-4)Glc
Outline: as §1

[32] = target: Neu5Ac(a2-6)Gal(b1-4)GlcNAc(b1-6)[Gal(b1-3)]GalNAc
Outline: as §1

[33] = target: Neu5Ac(a2-6)Gal(b1-4)GlcNAc6S
Outline: as §1

Neu5Ac(a2-6)GalNAc = target: Neu5Ac(a2-6)GalNAc
Outline: as §1

[34] = target: Neu5Ac(a2-6)GalNAc(b1-4)GlcNAc
Outline: as §1

[35] = target: Neu5Ac(a2-6)GalNAc(b1-4)GlcNAc6S
Outline: as §1

[36] = target: Neu5Ac(a2-6)GlcNAc(b1-4)GlcNAc
Outline: as §1

[37] = target: Neu5Ac(a2-6)GlcNAc(b1-4)GlcNAc(b1-4)GlcNAc
Outline: as §1

Neu5Ac(a2-8)Neu5Ac = target: Neu5Ac(a2-8)Neu5Ac
Outline: as §1

[38] = target: Neu5Ac(a2-8)Neu5Ac(a2-3)Gal(b1-3)GalNAc(b1-4)[Neu5Ac(a2-3)]Gal(b1-4)Glc
Outline: as §1

[39] = target: Neu5Ac(a2-8)Neu5Ac(a2-3)Gal(b1-3)GalNAc(b1-4)[Neu5Ac(a2-8)Neu5Ac(a2-3)]Gal(b1-4)Glc
Outline: as §1

[40] = target: Neu5Ac(a2-8)Neu5Ac(a2-3)Gal(b1-4)Glc
Outline: as §1

[41] = target: Neu5Ac(a2-8)Neu5Ac(a2-3)Gal(b1-4)GlcNAc
Outline: as §1

[42] = target: Neu5Ac(a2-8)Neu5Ac(a2-3)[Gal(b1-3)GalNAc(b1-4)]Gal(b1-4)Glc
Outline: as §1

[43] = target: Neu5Ac(a2-8)Neu5Ac(a2-3)[GalNAc(b1-4)]Gal(b1-4)Glc
Outline: as §1

B1: PA-IL (Pseudomonas aeruginosa), Q05097 (protein)
chain: MAWKGEVLANNEAGQVTSIIYNPGDVITIVAAGWASYGPTQKWGPQGDREHPDQGLICHDAFCGALVMKIGNSGTIPVNTGLFRWVAPNNVQGAITLIYNDVPGTYGNNSGSFSVNIGKDQS
- glycan array binding signal (z-score) [1]: -0.231
- glycan array binding signal (z-score) [2]: -0.225
- glycan array binding signal (z-score) [3]: -0.218
- glycan array binding signal (z-score) [4]: -0.228
- glycan array binding signal (z-score) [5]: -0.239
- glycan array binding signal (z-score) [6]: -0.233
- glycan array binding signal (z-score) [7]: -0.238
- glycan array binding signal (z-score) [8]: -0.235
- glycan array binding signal (z-score) [9]: -0.251
- glycan array binding signal (z-score) [10]: -0.225
- glycan array binding signal (z-score) [11]: -0.205
- glycan array binding signal (z-score) [12]: -0.225
- glycan array binding signal (z-score) [13]: -0.215
- glycan array binding signal (z-score) [14]: -0.225
- glycan array binding signal (z-score) [15]: -0.227
- glycan array binding signal (z-score) [16]: -0.224
- glycan array binding signal (z-score) [17]: -0.225
- glycan array binding signal (z-score) [18]: -0.243
- glycan array binding signal (z-score) [19]: -0.225
- glycan array binding signal (z-score) [20]: -0.236
- glycan array binding signal (z-score) [21]: -0.22
- glycan array binding signal (z-score) [22]: -0.227
- glycan array binding signal (z-score) [23]: 0.029
- glycan array binding signal (z-score) [24]: -0.228
- glycan array binding signal (z-score) [25]: 0.055
- glycan array binding signal (z-score) [26]: -0.187
- glycan array binding signal (z-score) [27]: -0.199
- glycan array binding signal (z-score) [28]: -0.236
- glycan array binding signal (z-score) [29]: -0.219
- glycan array binding signal (z-score) [30]: -0.209
- glycan array binding signal (z-score) [31]: -0.23
- glycan array binding signal (z-score) [32]: -0.216
- glycan array binding signal (z-score) [33]: -0.228
- glycan array binding signal (z-score) (Neu5Ac(a2-6)GalNAc): -0.229
- glycan array binding signal (z-score) [34]: -0.228
- glycan array binding signal (z-score) [35]: -0.225
- glycan array binding signal (z-score) [36]: -0.236
- glycan array binding signal (z-score) [37]: -0.241
- glycan array binding signal (z-score) (Neu5Ac(a2-8)Neu5Ac): -0.226
- glycan array binding signal (z-score) [38]: -0.243
- glycan array binding signal (z-score) [39]: -0.225
- glycan array binding signal (z-score) [40]: -0.238
- glycan array binding signal (z-score) [41]: -0.23
- glycan array binding signal (z-score) [42]: -0.218
- glycan array binding signal (z-score) [43]: -0.238
